# PubChem BioAssay AID463173 (ICCB-Longwood Screening Facility, Harvard Medical School, 2010)
# Hit rate of the full screen: of about 52,000 compounds, about 1,700 (3.3%) were called active. Cut-off read from the data, not from the text of the source: active = survival mostly below about 52% (no sharp cut-off); inactive = mostly above about 56%. The list shows a part of the results.
# System: Wild type
# Test: growth inhibition of S. aureus wild type versus tarO mutant, primary screen, teichoic acid synthesis inhibitors, RN4220, OD600 (AID 463173)
# Details: S. aureus RN4220 wild type/DeltatarO growth, OD600, 18 h, hits give low values, screened at 18.75 µg/mL (by protocol)
row,SMILES,survival
1,CCN1CCc2nc3sc(C(=O)Nc4ccccc4OC(F)(F)F)c(N)c3cc2C1,inactive: 95%
2,CCOC(=O)N1CCN(S(=O)(=O)N2CCCC(C(=O)NCc3cc(Br)ccc3OC)C2)CC1 (stereo unspecified),inactive: 76%
3,Cc1cc(=O)c2cc(C(=O)Nc3ccc(F)cc3)ccc2[nH]1,inactive: 87%
4,CCOc1ccc(Nc2oc(/C=C/c3ccc(OC)c(OC)c3)nc2C#N)cc1,inactive: 89%
5,Cc1cccn2c(=O)c(C(=O)NC(C)c3ccccc3)c(O)nc12 (stereo unspecified),inactive: 63%
6,COc1ccc(C)cc1-n1nnc(S(=O)(=O)c2ccc(C)cc2)c1C,inactive: 70%
7,COc1ccc2c(C)c(CCC(=O)NCc3ccccc3OC)c(=O)oc2c1,inactive: 83%
8,O=C(Cn1c(-c2cccs2)cc2cc(F)ccc21)N1CCN(c2ccccc2)CC1,inactive: 68%
9,COc1ccc(CNc2oc(/C=C/c3cc(OC)c(OC)c(OC)c3)nc2C#N)cc1,inactive: 89%
10,COCCn1c(SCC(=O)NCc2ccco2)nnc1-c1cccs1,inactive: 109%
11,CCN(CC)S(=O)(=O)c1ccc(C(=O)NC2CC(=O)N(c3ccc(OC)c(OC)c3)C2)cc1 (stereo unspecified),inactive: 84%
12,O=C(c1ccccc1Cl)N1CCC(c2nc3ccccc3s2)CC1,inactive: 87%
13,CCOCCCNC(=O)C(=O)Nc1c2c(nn1-c1ccccc1)CSC2,inactive: 81%
14,O=C(COc1ccc(Cl)cc1)NCC(c1ccco1)S(=O)(=O)c1ccc(F)cc1 (stereo unspecified),inactive: 76%
15,CC(=O)c1ccc(NC(=O)c2cc3sccc3n2Cc2ccc(Cl)cc2)cc1,inactive: 93%
16,Cc1ccc(N(CC(=O)NCCSc2ccccc2)S(=O)(=O)c2ccc(F)cc2)cc1,inactive: 107%
17,COCCCn1c(=O)c2sccc2n2c(CCCC(=O)Nc3cccc(OC)c3)nnc12,inactive: 101%
18,COc1ccc(CNC(=O)c2cc3cccc4c3n2CC(C)S4)cc1OC (stereo unspecified),inactive: 72%
19,Cc1ccc(CNS(=O)(=O)c2ccc3[nH]c4c(c3c2)CCCCC4)cc1,inactive: 84%

row,SMILES,survival
1,Cc1nnc(SCC(=O)O)n1N,inactive: 112%
2,COc1ccc(Cl)cc1NC(=O)Cn1nc(C(F)(F)F)c2c1CCCC2,active: 9%
3,Cc1cccc(NC(=O)C2CCCN(S(=O)(=O)c3ccc4c(c3)CCCC(=O)N4)C2)c1 (stereo unspecified),inactive: 78%
4,COCCCn1c(SCC(=O)Nc2ccc(F)cc2)nc2c(sc3ccccc32)c1=O,inactive: 72%
5,Cc1ccc(Cl)cc1-n1ncc2c(Nc3ccc4c(c3)OCCO4)ncnc21,inactive: 99%
6,O=C(c1ccc2c(c1)N(Cc1c(F)cccc1Cl)C(=O)c1ccccc1S2)N1CCCC1,inactive: 101%
7,CCc1ccc(NC(=O)c2ccc(Cn3nc(N4CCN(c5ccccc5)CC4)ccc3=O)o2)cc1,inactive: 72%
8,COc1cc(NC(=O)CN2C(=O)COc3ccc(S(=O)(=O)NC4CCCC4)cc32)cc(OC)c1,inactive: 135%
9,CCOc1cc(S(=O)(=O)NCCc2ccc(OC)c(OC)c2)c(OCC)cc1-n1cnnn1,inactive: 105%
10,CC(=O)N1CCCC1c1nc2ccccc2n1Cc1ccc(F)cc1 (stereo unspecified),inactive: 86%
11,COc1ccc(-c2cc3ncc(C(=O)c4cc([N+](=O)[O-])ccc4O)cn3n2)cc1,inactive: 58%
12,O=C(Nc1cccc2cccnc12)c1ccc(-c2cccc(Cl)c2)o1,active: 0%
13,CCC(C)c1ccccc1OCC(=O)Nc1ccc(S(=O)(=O)Nc2cc(C)on2)cc1 (stereo unspecified),inactive: 68%
14,COc1cc(NS(=O)(=O)c2c(C(=O)N3CCCCC3)c(C)n(C)c2C)cc(OC)c1OC,inactive: 81%
15,CC1CCc2c(sc3nnn(CC(=O)Nc4c(C(C)C)cccc4C(C)C)c(=O)c23)C1 (stereo unspecified),inactive: 62%
16,CCCn1c2ccccc2c2cnn(CC(=O)NCCCN(CC)c3ccccc3)c(=O)c21,inactive: 72%
17,O=C(Nc1sc2c(c1C(=O)NCC1CCCO1)CCC2)c1cc(=O)c2cc(Cl)ccc2o1 (stereo unspecified),inactive: 80%
18,CCOC(=O)c1cc(-c2ccccc2)n(CC(=O)Nc2ccccc2OCC)c1C,inactive: 88%
19,Cn1nnnc1SCCCNCc1cc(Br)ccc1OCc1ccccc1F,inactive: 82%

row,SMILES,survival
1,Cc1ccc(CCNC(=O)c2ccc3c(c2)N(Cc2ccccc2F)C(=O)c2ccccc2S3=O)cc1 (stereo unspecified),inactive: 90%
2,COc1cccc(NC(=O)CCCn2c(=O)c3cccn3c3cccnc32)c1,inactive: 85%
3,CC(=O)Nc1ccc(S(=O)(=O)N2CCN(C(=O)N3CCCC3)CC2)cc1,inactive: 101%
4,Fc1ccc(-c2csc(=Nc3cccc(C(F)(F)F)c3)n2Cc2ccc3c(c2)OCO3)cc1,inactive: 81%
5,CCOC(=O)c1c(S(=O)(=O)NCC(=O)Nc2ccc(C(C)=O)cc2)c(C)n(C)c1C,inactive: 89%
6,O=C1C(=O)N(C2CCNCC2)CCN1Cc1ccccc1,inactive: 81%
7,Fc1ccc(-c2cc(-c3ccccc3)c3c(n2)-c2ccccc2OC3)cc1,inactive: 61%
8,COc1ccc(-c2nc(CCNC(=O)c3ccccc3)cs2)cc1OC,inactive: 134%
9,Cc1cccc(C)c1NC(=O)CCCn1c(=O)c2cccn2c2ccccc21,inactive: 76%
10,Cc1nn(-c2ccccc2)c(OC(=O)c2ccccc2Cl)c1S(=O)(=O)c1ccccc1,inactive: 56%
11,CCOc1ccc(-n2cc(-c3ccccc3)c3c(NC4CCCCC4)ncnc32)cc1,inactive: 85%
12,Cc1ccc(CNC(=O)CCS(=O)(=O)c2ccc3c(c2)CC(C)N3C(=O)C2CC2)cc1 (stereo unspecified),inactive: 63%
13,CCOc1ccc(NC(=O)CSC2=Nc3ccccc3C3=NC(CCC(=O)NCc4cccs4)C(=O)N23)cc1 (stereo unspecified),inactive: 65%
14,CCOc1ccc(-c2nnc(SCC(=O)NCc3ccc(C)cc3)nc2-c2ccc(OCC)c(OC)c2)cc1OC,inactive: 60%
15,COc1ccc2c(c1)c1c(c(=O)n(-c3cccc(Cl)c3)c(=O)n1CC(=O)NCC1CCCO1)n2C (stereo unspecified),inactive: 72%
16,COCCNC(=O)Cn1cnc2sc(C)c(S(=O)(=O)N3CCN(c4ccccc4OC)CC3)c2c1=O,inactive: 137%
17,CCc1nn2c(=O)cc(COC(=O)c3ccccc3NC(=O)COc3ccc(F)cc3)nc2s1,inactive: 73%
18,CCOC(=O)c1[nH]c(C)c(CCC(=O)Nc2cccc(C(F)(F)F)c2)c1C,inactive: 82%
